Measurements taken from PMC12136788.
The list shows a part of the results.

T1: UNK ZnF1-3 (human, UniProt Q9C0B0 31-174)
T1 sequence: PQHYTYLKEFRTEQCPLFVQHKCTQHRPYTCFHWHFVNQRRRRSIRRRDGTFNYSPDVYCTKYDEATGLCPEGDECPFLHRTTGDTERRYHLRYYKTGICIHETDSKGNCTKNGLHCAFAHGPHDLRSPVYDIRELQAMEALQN

B1: chr1:78428562:78428563:-_ENSG00000162613_ENST00000370768|hu_hu|motif|central (ssRNA)
RNA: GGGAGUUCUACAGUCCGACGAUCAAUUGUAAAUAACUUCAUAUUAGGAUCUGCAUUUGGUGGAGGAUUUCUCUGAAGUUCGGUUCUUGCACCAGACUGCUGGCUUAUGCUUUUUAUGGUUUCACCUCCUUUUCCUAUUAUUAACAACAGAGGAUUGAGCAUCA
B2: chr11:106683525:106683526:-_ENSMUSG00000018363_ENSMUST00000103067|mus_mus|FALSE|FALSE (ssRNA)
RNA: GGGAGUUCUACAGUCCGACGAUCUGAUCCCUCUUUAGCCAAUUGUUUACAAAGGUGGAACAAUCCAAAAUAACUUUAUUUAAUUUCUUACAAAGAGCAGGUAUAGGAGUUGUUCAAAAAUCAUGUACUCAAUCAAAAUGAAGUCAACAGAGGAUUGAGCAUCA
B3: chr10:33190432:33190433:-_ENSG00000150093_ENST00000302278|hu_mus|hu_hu_hu_mus_True|88_88 (ssRNA)
RNA: GGGAGUUCUACAGUCCGACGAUCUACAUUUUCCAAACCUGCAUGUGAGUAAAACCAUGGCCACAGAGCCCCAAAACUACCCUACUGUGACUAAGAUGCUGCUGCUGUGAGCUUGGUGUUGCAAAAUCCGCCUGAGUAGGAUUCCAACAGAGGAUUGAGCAUCA
B4: 231473864_231473984_131_5pUTR_ENSG00000010072_ENST00000295050|human|control|control (ssRNA)
RNA: GGGAGUUCUACAGUCCGACGAUCCGGAAACGCGCUUGAGAACGAGAACGGAGCUUACCCCAAACGCCGAAGCCAAGAUUCUAGGGCUUUAAAAAAAGCAGUCAGCAUGACACCUCCUAGUGGGCGCAGAACCUGGGCUCACAGCAACAGAGGAUUGAGCAUCA
B5: chrX:71549400:71549401:+_ENSMUSG00000019087_ENSMUST00000019231|mus_hu|mus_mus_mus_hu_False|1_18 (ssRNA)
RNA: GGGAGUUCUACAGUCCGACGAUCGCAGUAGGAAGAGGGAAGCUCUUCAGUCCAGUGCGCUGCAGGGUGGGAAAGCAACAACACGGACACCGUCCCACCCUCAACCCCCCCACUGGCAUGUCACACAACAAUCUGGGAAGUGAUCAACAGAGGAUUGAGCAUCA
B6: chr5:73930785:73930786:-_ENSG00000171617_ENST00000302351|hu_mus|FALSE|FALSE (ssRNA)
RNA: GGGAGUUCUACAGUCCGACGAUCCUUGGCUGUCACAUCUCCCACCUUGGUCCACUGGUAAGUCUCACUAUUGAAUUUGUAAGCGGAGCAGGCAGAGAACUCUGUAUCUCCACCCAUGAUAAAAAUCUGGUUUCCCAGCACAGCCAACAGAGGAUUGAGCAUCA
B7: chr5:86670034:86670035:+_ENSG00000145715_ENST00000456692|hu_mus|motif|central (ssRNA)
RNA: GGGAGUUCUACAGUCCGACGAUCCUCUGACCAUACUGGGUUUUGCCCCUCCCUUGCAUGAGUUUUUGCUACUUGGACGCGGUUCAAGUAGAUGUUACAAUAUGGAUUAGUAAAGUGUUUUACUGGUAGUUUAUGGGCUUCUUCCAACAGAGGAUUGAGCAUCA
B8: chr16:94690093:94690094:+_ENSMUSG00000040785_ENSMUST00000117648|mus_hu|mus_mus_mus_hu_True|38_38 (ssRNA)
RNA: GGGAGUUCUACAGUCCGACGAUCGGGCUGGGAUGACGGACACACAGCCUCGAUUCCAGGGGGAAAAAGUCUUAGUCGAUACUAAUUAAAAAGUGUUUUUAUAAUUGGAAAAUCAGAUUACAUCUAUAAAAGAUGAAAAGCAAACAACAGAGGAUUGAGCAUCA
B9: chr2:114342542:114342543:-_ENSMUSG00000057147_ENSMUST00000102542|mus_hu|FALSE|FALSE (ssRNA)
RNA: GGGAGUUCUACAGUCCGACGAUCUAAAGGAGAGGGAGGGAUGAAUAAGUAAAACACAGAGGAUUUUUUAAGGCAGUGAAAUUAUUCUGUAUAAUACUAUAACGGUUGACAAAUGUCAUUACACAUUUGUCAAAACCCAUAUUACAACAGAGGAUUGAGCAUCA
B10: chr2:125074910:125074911:+_ENSMUSG00000027203_ENSMUST00000082122|mus_hu|FALSE|FALSE (ssRNA)
RNA: GGGAGUUCUACAGUCCGACGAUCUUUUGCAGCCAAGCCUGACCGUGGAGCCACUCUUCCAUAACACCCAGAAGGGAGCGCUAUCUGAAUGUCCGUUUUCACAACAGCUUUCUCCAUAGGUGGUAUUGUGUAAUCAUAGGCACUCAACAGAGGAUUGAGCAUCA
B11: chr2:42509997:42509998:+_ENSG00000143924_ENST00000318522|hu_mus|hu_hu_hu_mus_True|78_108 (ssRNA)
RNA: GGGAGUUCUACAGUCCGACGAUCUCGCUGAGUUCUCUCCUCAUAAUUAAACAGGACUACUACUGAUGCGAUAAAAUAAACUAUCUCCCCUGUGGGAAGCAGGUAUACAUUCGCUCUACAGUCCUUUCCUCGAUAACCGUAUACCAACAGAGGAUUGAGCAUCA
B12: chr9:62645482:62645483:-_ENSMUSG00000032244_ENSMUST00000034775|mus_mus|FALSE|FALSE (ssRNA)
RNA: GGGAGUUCUACAGUCCGACGAUCGACUGUGGUGUGGUUCACGUUGGCUCCAUGGCUGACUAGAAGUUUAACAACUUCAAAAUGUCCGGCUCCCGCAGCACACCAAAGAGCAGUGGCACCGUCAAUGACAUACCCGUCGAAGCGCAACAGAGGAUUGAGCAUCA
B13: chr9:122046315:122046316:+_ENSMUSG00000038145_ENSMUST00000120173|mus_hu|motif|central (ssRNA)
RNA: GGGAGUUCUACAGUCCGACGAUCUAGUUUGGUCUGGGUGUCAAUAACUUCAUAAAGGCGGACGAUGUUAGGAUGCUGCACGGGUUUCAUGCAUCUCACUUCCUGGAAAAGAUGACCAGUAGCUAGAGUGUCCAGUUUUGUCUUCAACAGAGGAUUGAGCAUCA
B14: chr16:32231720:32231721:-_ENSMUSG00000035764_ENSMUST00000042732|mus_hu|FALSE|FALSE (ssRNA)
RNA: GGGAGUUCUACAGUCCGACGAUCACAAUCUUAACUCCCAAGGAGCAAUCCAAGAAUCCCGGCCAGCUGCUGGGUGUCCCUAAUCAGAUUUAAAACAAAACAUACAUACAGCAAGAACUCAGAAGUACAAAGAUUUCGCUCGCUCAACAGAGGAUUGAGCAUCA

Each binder was assayed against T1, UNK ZnF1-3 (assay: nsRBNS (natural sequence RNA bind-n-seq); RBNS binding buffer (assumed for nsRBNS): 25 mM Tris pH 7.5, 150 mM KCl, 3 mM MgCl2, 0.01% Triton X-100, 500 ug/ml BSA, 20 U/ml SUPERase-In, 4 C; UNK is unkempt and MSI1 is Musashi-1; names of the RNAs are library labels; protein concentration not given here; high values mean tight binding).
B1 gave a binding signal of 0.537 enrichment R. Binder B2 has a binding signal of 2.05 enrichment R. For B3, the binding signal was 0.993 enrichment R. With B4 the binding signal was 0.835 enrichment R. Binder B5 has a binding signal of 1.26 enrichment R. For B6, the binding signal was 1.77 enrichment R. Work on B7 yielded a binding signal of 0.377 enrichment R. With B8 the binding signal was 1.15 enrichment R. Work on B9 yielded a binding signal of 2.78 enrichment R. B10 showed a binding signal of 0.912 enrichment R. B11 was tested, and the binding signal was 0.963 enrichment R. B12 was tested, and the binding signal was 1.05 enrichment R. B13 gave a binding signal of 1.03 enrichment R. B14 gave a binding signal of 1.4 enrichment R.
